# Hit rate of the full screen: of about 310,000 compounds, about 14,000 (4.5%) showed an effect of 50% or more. The effect is printed as a negative number. Some of the results follow.
# Target: human ether-à-go-go-related gene (hERG) potassium channel (human, UniProt Q12809)
# Experiment: primary screen, population patch clamp on CHO cells stably expressing hERG
# 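Also: peak tail current of the secondary pulse compared with the same well before compound.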
# human ether-à-go-go-related gene (hERG) potassium channel, sequence (Q12809 whole entry, looked up): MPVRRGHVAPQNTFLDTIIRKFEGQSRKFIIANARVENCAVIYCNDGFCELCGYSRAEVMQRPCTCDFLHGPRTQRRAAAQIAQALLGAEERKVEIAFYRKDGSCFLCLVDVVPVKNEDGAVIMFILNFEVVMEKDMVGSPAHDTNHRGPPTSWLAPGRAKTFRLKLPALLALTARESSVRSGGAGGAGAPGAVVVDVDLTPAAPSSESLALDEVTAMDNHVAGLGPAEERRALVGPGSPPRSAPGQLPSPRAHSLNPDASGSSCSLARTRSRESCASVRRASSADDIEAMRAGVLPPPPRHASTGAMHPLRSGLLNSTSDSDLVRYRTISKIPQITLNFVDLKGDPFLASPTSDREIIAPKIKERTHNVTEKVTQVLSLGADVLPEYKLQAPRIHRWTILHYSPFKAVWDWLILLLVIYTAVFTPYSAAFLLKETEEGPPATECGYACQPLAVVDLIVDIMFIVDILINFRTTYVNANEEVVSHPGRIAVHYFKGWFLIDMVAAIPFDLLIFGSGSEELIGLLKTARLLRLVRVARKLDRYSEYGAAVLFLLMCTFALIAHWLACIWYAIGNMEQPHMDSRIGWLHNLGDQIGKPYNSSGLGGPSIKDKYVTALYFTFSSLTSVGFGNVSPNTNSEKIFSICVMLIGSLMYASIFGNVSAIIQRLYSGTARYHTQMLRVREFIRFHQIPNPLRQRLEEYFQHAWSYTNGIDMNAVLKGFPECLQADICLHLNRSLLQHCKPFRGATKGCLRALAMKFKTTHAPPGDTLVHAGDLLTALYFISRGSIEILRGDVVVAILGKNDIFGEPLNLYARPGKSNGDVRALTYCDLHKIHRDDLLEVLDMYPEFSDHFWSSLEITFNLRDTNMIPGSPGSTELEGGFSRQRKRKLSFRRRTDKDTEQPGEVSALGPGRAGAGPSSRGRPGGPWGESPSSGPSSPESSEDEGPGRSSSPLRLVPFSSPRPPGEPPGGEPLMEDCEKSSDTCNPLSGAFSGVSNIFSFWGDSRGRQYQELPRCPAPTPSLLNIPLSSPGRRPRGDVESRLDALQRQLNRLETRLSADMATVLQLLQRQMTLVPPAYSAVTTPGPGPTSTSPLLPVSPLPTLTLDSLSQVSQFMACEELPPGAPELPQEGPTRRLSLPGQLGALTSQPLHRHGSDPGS
row,SMILES,"hERG current change (%, negative = inhibition) at 10uM [%]"
1,COCCn1c(SCC(=O)c2c(N)n(C3CC3)c(=O)[nH]c2=O)nnc1-c1cccc(C)c1,10.3
2,Fc1cc(NC(=S)NCc2ccc(CNC(=S)Nc3ccc(Cl)c(F)c3)cc2)ccc1Cl,-2.24
3,O=C(CNc1ccc(Cl)cc1)NNC(=S)NCc1ccccc1,14.2
4,CC(C)CC(NC(=O)C1CCC(C)CC1)C(=O)NCc1ccco1 (centres unmarked),-24.6
5,CC(NCC1COc2ccccc2O1)C(=O)NCc1ccccc1.O=C(O)C(=O)O (centres unmarked),-18.1
6,CNn1cnc2ccsc2c1=O,16.8
7,COCC(=O)N/N=C\c1cccc(OC)c1OC/C=C/c1ccccc1,-15.6
8,COc1cc(OC)c(OC)cc1/C=C/C(=O)c1ccc(NS(=O)(=O)c2ccc(C)cc2)cc1,-0.00772
9,CC(=O)OC(C)(C)/C=C/C(=O)C(C)(O)C1[C@H](O)C[C@@]2(C)C3CC=C4C(CC[C@@H](O)C4(C)C)[C@]3(CO)C(=O)C[C@]12C (some centres unmarked),25.8
10,COc1ccccc1Nc1c([N+](=O)[O-])cc(C)cc1[N+](=O)[O-],22.7
11,CCCCCC(=O)Nc1ccc(N2CCOCC2)c(S(=O)(=O)Nc2ccc(OC)cc2)c1,-28.4
12,COc1ccc(C(=O)NC2CC2)cc1OC1CCN(Cc2cc(C)c(C)cc2C)CC1,-83.1
13,COc1ccc(NS(=O)(=O)c2cccc(C(=O)N/N=C/c3ccccn3)c2)cc1,7.1
14,CC1C(=O)N2CCCc3cc(S(=O)(=O)N4CCCCC4)cc1c32 (centres unmarked),6.43
15,Cc1ccc(/C=N/NC(=O)c2ccc(C(=O)N/N=C/c3ccc(C)s3)o2)s1,8.91
16,COc1ccc(S(=O)(=O)N2CCOCC2)cc1NC(=O)CSc1nnc(N)s1,-17.2
17,NS(=O)(=O)c1ccc(CNC(=O)Cc2ccc(S(=O)(=O)N3CCOCC3)s2)cc1,-1.38
18,CC1CC(C)CN(S(=O)(=O)c2ccc(NC(=O)C3CC(=O)N(Cc4ccccc4)C3)cc2)C1 (centres unmarked),17.3
19,O=C(NC(N1CCOCC1)C(Cl)(Cl)Cl)c1ccc(Br)cc1 (centres unmarked),-25.2
20,CC(=O)N1CC(C)Oc2ccc(S(=O)(=O)Nc3ccc(Cl)cn3)cc21 (centres unmarked),3.04
21,CCc1ccc(NC(=O)Nc2cnccn2)cc1,6.01
22,COc1cc2[nH]c(=O)n(C3CCCCC3)c(=O)c2cc1OC,17.9

row,SMILES,"hERG current change (%, negative = inhibition) at 10uM [%]"
1,CCOc1ccc(-c2cc(N3C(=O)Nc4ccccc4N3O)n[nH]2)cc1,20.1
2,O=C(CNCCO)Nc1ccc(F)c(Cl)c1,11.1
3,CCCCOc1ccc(N2C(N)=NC(N)=NC23CCCCC3)cc1.Cl,3.14
4,CCOC(=O)c1nn(-c2ccc(Cl)cc2)c2nnc(Cc3ccc(C)cc3)c(=O)n12,-26.6
5,CCc1nnc(NC(=O)CCC(=O)Nc2ccc(C)cc2)s1,-20.2
6,CCN(CC)S(=O)(=O)c1csc(C(=O)NCc2ccccc2)c1,-5.34
7,Cc1ccc(OCC(=O)Nc2ccc3c(c2)OCO3)cc1C,8.46
8,CN(Cc1ccccc1)C(=O)COC(=O)C1=NNC(=O)CC1,-9.88
9,CCn1c(SCC(=O)NCCOc2ccccc2)nc2ccccc2c1=O,-24.5
10,CC(=O)Oc1ccc(C(=O)Nc2cccc(NC(=O)c3ccco3)c2)cc1,13.5
11,CC(C)(C)NC(=O)N1CCN(c2nc3ccc(Cl)cc3s2)CC1,-11.9
12,CCN(CC)S(=O)(=O)c1ccc2c(c1)N(CC(=O)N1CCC(C(N)=O)CC1)C(=O)CO2,23.5
13,N#CCCN(Cc1ccncc1)C(=S)NC1CC2C=CC1C2 (centres unmarked),2.76
14,CC(=O)CSc1ccc(-c2nc3ccccc3[nH]2)cn1,-6.93
15,CCCC(O)(CCC)C(=O)NN1CCCCC1,-1.58
16,CCOC(=O)CNC(=O)CSc1ncnc2c1cnn2-c1ccc(OC)cc1,0.432
17,CCCC[C@@H]1CN=C(N)N1CC(C)(C)C,13.4
18,Nc1nnnn1/N=C/c1ccco1,-46.4
19,CCS(=O)(=O)c1ccc2oc(Nc3cccc(OC)c3)nc2c1,9.78
20,O=C(O)c1cn(-c2ccc(F)c(F)c2)c2c(F)c(F)c(F)c(F)c2c1=O,-0.977
21,CC12CCC(C(=O)Nc3ccc(SC(F)F)cc3)(CC1=O)C2(C)C (centres unmarked),-46
22,COc1cc(/C=C(/C(=O)c2cccs2)c2nc3ccccc3[nH]2)ccc1O,-22.2

# Reference: article PMC4336329 (PLoS ONE, 2015)
